This is one part of the list. At the low end of the ranking the order means little.

The target of the experiment is SIX1 homeodomain (reference allele) (UniProt Q15475). The experiment in a line: universal protein binding microarray. The settings on record: Universal all-10-mer PBM (8x60K, AMADID 030236), 300 nM GST-tagged protein, Alexa Fluor 488 anti-GST; buffer, salt, pH and temperature not stated; high values mean tight binding; most listed sequences are background and not binding sites; double strand, one strand shown.
For the sequence CAAATCCC, the binding signal stood at 0.0211 E-score. With CAGTTCCA, the binding signal is -0.0691 E-score.

As for TAGAGATA, the binding signal was determined as 0.268 E-score. Under CCACTTGC stands 0.00498 E-score; under AAAATTAT, -0.0602 E-score. In the case of AAGATAAA, the binding signal is -0.0649 E-score. For AGGCTCCA, the binding signal is -0.155 E-score. Under AATAAAGG stands -0.171 E-score. Turning to GGTTGTGA, the binding signal is -0.116 E-score. Take CTAATTCA: the binding signal was -0.201 E-score. Under CCTGCGAG stands 0.0434 E-score; under GAGGCCCC, -0.29 E-score. Take CTATTAAC: the binding signal is -0.00142 E-score. As to ACCTGGCG, the binding signal was -0.0637 E-score.

On to AACCAGAC, for which the binding signal was -0.217 E-score. As to CACCAGGA, the binding signal stood at 0.0222 E-score. For ACTACTAC, the binding signal is -0.112 E-score. Under GTACTGGA stands 0.0566 E-score. With AATGCGAT, the binding signal turned out to be 0.123 E-score. In the case of AATGTGCG, the binding signal worked out at 0.129 E-score. Under CTTCCTTC stands -0.219 E-score; under AGCCACGA, -0.0187 E-score.

In the case of TTAGGCAA, the binding signal is -0.231 E-score. TAACTTAA: the binding signal was found to be 0.0397 E-score. CAGACTGG: the binding signal was -0.122 E-score. For the sequence AAACCATA, the binding signal turned out to be 0.103 E-score. As to GCTCCCCC, the binding signal was -0.334 E-score. As for CATACTCC, the binding signal came out at 0.136 E-score. As to CTCGGGAC, the binding signal is -0.271 E-score. Under AAGTACAA stands -0.218 E-score; under CATGTCCA, 0.0429 E-score.

As to AATTCCAA, the binding signal is -0.181 E-score. In the case of TAATTCCA, the binding signal was -0.00988 E-score. Regarding AGGGCCCA, the binding signal is -0.323 E-score. Consider AGCTCTCC, for which the binding signal is -0.158 E-score.

On to TGCTAAAA, for which the binding signal was -0.161 E-score.

In the case of GCAAATCC, the binding signal was -0.105 E-score. As to ATTCTAGA, the binding signal is 0.0195 E-score. Under AAAGTTCG stands -0.215 E-score; under CTTACAGC, -0.0499 E-score. For the sequence AGGAATTG, the binding signal was determined as 0.0141 E-score. For AGGGACAC, the binding signal came out at 0.0701 E-score. Turning to AGATACAA, the binding signal was 0.168 E-score. In the case of ATGTAGGA, the binding signal worked out at 0.0156 E-score. Under AACGCCTT stands -0.314 E-score. For the sequence GAGAAAGA, the binding signal was -0.0414 E-score.

Take CAGACTAG: the binding signal is -0.117 E-score. Consider ATAGCATA, for which the binding signal stood at 0.218 E-score. Regarding ATGAGTCG, the binding signal is -0.108 E-score. With AGTAGGTC, the binding signal is -0.0888 E-score. As for GCCACTTA, the binding signal was -0.0268 E-score. As to CGACAGAG, the binding signal was -0.171 E-score. Under TCGGCTCA stands 0.0122 E-score; under CTCTCCCC, 0.164 E-score; under CCCCGTGC, 0.0193 E-score. Under CCGTAGAG stands -0.138 E-score; under TCCTCTAA, 0.0708 E-score. As for CACGCCTG, the binding signal was -2.5e-05 E-score. Under AATCTCAT stands 0.121 E-score; under GACTACCA, -0.0567 E-score. Regarding CTGGGTCC, the binding signal was -0.127 E-score. Under GAAATTAC stands -0.312 E-score; under AAACTTCA, -0.266 E-score. In the case of TCCCGGGA, the binding signal is -0.0934 E-score.

As for CGTAAACG, the binding signal was -0.232 E-score. Under CAGGATAA stands 0.237 E-score; under CCGGAGCC, -0.0815 E-score. Turning to CTTGCAGA, the binding signal worked out at 0.0249 E-score.

CCCCTGGC: the binding signal amounted to 0.16 E-score.

Turning to ATAGGTCA, the binding signal came out at 0.0622 E-score. In the case of ACTTTCTG, the binding signal is -0.272 E-score.

Turning to ACCTCGTA, the binding signal came to 0.0611 E-score. With AGGTCTAT, the binding signal is 0.0598 E-score. In the case of AGTAAATG, the binding signal was -0.0757 E-score. Take AAGGTCGC: the binding signal was -0.321 E-score. On to GGCAACCA, for which the binding signal was -0.124 E-score.

As for GGAAGTTA, the binding signal is -0.133 E-score. As for AAGATACG, the binding signal was determined as 0.322 E-score. In the case of CGTCGGTA, the binding signal is -0.0562 E-score. Under TAGAGCAA stands -0.307 E-score. On to AGAATTTC, for which the binding signal is -0.213 E-score. In the case of GAAGGGGC, the binding signal is -0.108 E-score. Regarding GTTTATGA, the binding signal was determined as 0.0419 E-score. As to AAAACTTT, the binding signal is -0.263 E-score. Under AGATCCAA stands 0.204 E-score; under ATCGGCTC, 0.269 E-score. As for GGGCAATA, the binding signal is 0.123 E-score.

Consider CGGGCAAA, for which the binding signal is -0.196 E-score. Consider CGATGTGC, for which the binding signal was -0.143 E-score. With CCGCAGCC, the binding signal was -0.0973 E-score. Regarding ATTGAACA, the binding signal was -0.0746 E-score. On to ATACAAAT, for which the binding signal was 0.0939 E-score.

Turning to AAGGTGAG, the binding signal worked out at 0.0174 E-score.

Turning to AACTTATT, the binding signal was -0.126 E-score. Under AATTCCGA stands -0.052 E-score; under CCCAGTGA, -0.0871 E-score; under AACTCGGT, -0.0571 E-score. Under CAGGCTAG stands -0.0928 E-score; under GCTTGGGA, -0.0273 E-score. On to GGCAAAAA, for which the binding signal is -0.313 E-score.

On to CTGGTGTC, for which the binding signal amounted to 0.414 E-score. Under CACTCCAA stands -0.197 E-score.

Take TAGCCGCA: the binding signal stood at 0.0127 E-score. As for TGTCTGAA, the binding signal was -0.0176 E-score. On to CCTACTTC, for which the binding signal was -0.118 E-score. Under CTAGCACA stands -0.267 E-score. With GGTGCGGA, the binding signal is 0.000785 E-score. Consider AGTGACTC, for which the binding signal is -0.0801 E-score. As for CAATCTGG, the binding signal is 0.109 E-score. Consider CGGCCGAA, for which the binding signal was -0.0831 E-score.

With TCACTAGA, the binding signal was 0.0992 E-score. Take ACTAGGGG: the binding signal is 0.121 E-score. Regarding GAAAGAAC, the binding signal is -0.129 E-score. Take ATCTAAAT: the binding signal worked out at 0.15 E-score. On to GCCATTTA, for which the binding signal was -0.169 E-score. Under CTACGACC stands -0.287 E-score. Take ACATGTAC: the binding signal was -0.0938 E-score. Under ACGGCAAT stands -0.135 E-score; under ATGTTCTG, 0.00549 E-score. Under CGTGGCTC stands -0.0195 E-score; under ATGTTTCC, -0.131 E-score.

ACACACCG: the binding signal came to 0.0905 E-score. For ACAACCCG, the binding signal is -0.0244 E-score.

Take AAGTAAAG: the binding signal is -0.265 E-score. Turning to GTTAGCTA, the binding signal is -0.165 E-score. In the case of AATTAGAC, the binding signal is -0.00985 E-score. Under CATGTTCA stands -0.159 E-score; under GAAACTAA, -0.171 E-score. On to ATGCGTAG, for which the binding signal came to 0.0042 E-score. Consider AATTGAAA, for which the binding signal was -0.201 E-score. GACGCTAC: the binding signal was -0.232 E-score. Under AGCAGCCG stands -0.131 E-score; under AGCCAACC, -0.101 E-score; under AACGTCGT, -0.21 E-score. As to CACCCGAC, the binding signal was determined as 0.00436 E-score.

On to CCCTTGGA, for which the binding signal turned out to be 0.213 E-score.

On to AATTTTGT, for which the binding signal was -0.243 E-score. Regarding GTACCTAA, the binding signal is -0.0837 E-score.

Consider ACTTCGCA, for which the binding signal is -0.359 E-score. As to AGTCATTC, the binding signal is -0.236 E-score. Consider AGTTATGA, for which the binding signal worked out at 0.0121 E-score. As for CAGAGATG, the binding signal is 0.0747 E-score. For GCCGCACA, the binding signal is -0.224 E-score. Under GTTTATCA stands -0.0874 E-score; under CCTTCCCG, -0.0675 E-score.

Regarding ATTCAAGG, the binding signal was -0.0934 E-score. Consider CGGACGGC, for which the binding signal was -0.0951 E-score. Under AACTACGT stands -0.119 E-score. Regarding ACCTCTCT, the binding signal is -0.142 E-score. Under CTAACTTC stands -0.273 E-score.

As for ATTTTCAC, the binding signal is -0.189 E-score. For the sequence AAGGCCGA, the binding signal is -0.00507 E-score. In the case of CCAAATGA, the binding signal is -0.0119 E-score. CAACTCTC: the binding signal was -0.21 E-score.

Regarding CACCTGCC, the binding signal was -0.00262 E-score. In the case of ACTATGGC, the binding signal is -0.186 E-score. Under GAATTGAA stands -0.122 E-score. Consider GCCACAGA, for which the binding signal was -0.232 E-score. CGCCCGTA: the binding signal was 0.069 E-score. With ATTGCCCG, the binding signal was -0.0149 E-score. With TGGAGTAA, the binding signal stood at 0.112 E-score. For GCTGCGAC, the binding signal was -0.244 E-score. Turning to AAGTCAAT, the binding signal is -0.188 E-score. In the case of CCCACTAG, the binding signal is -0.152 E-score.

For the sequence GTACTTTA, the binding signal is -0.0635 E-score. In the case of GAAAGTGC, the binding signal was -0.389 E-score. On to CCCATGCA, for which the binding signal was -0.0904 E-score. As to ACCATTAT, the binding signal was -0.0306 E-score. With ACGCTTAT, the binding signal is -0.0636 E-score. In the case of AACTGCAT, the binding signal is -0.189 E-score.

Turning to ACGCAATG, the binding signal is -0.0771 E-score. On to GAACAGGA, for which the binding signal is -0.121 E-score.

These data come from paper PMC10668032.
